Assay results: PubChem BioAssay AID624417 (National Center for Advancing Translational Sciences (NCATS), 2012)
Hit rate of the full screen: of about 410,000 compounds, about 6,400 (1.6%) were called active. Inconclusive results, whose numbers are uncertain, are shown with a selection of clear calls. The call rests on the fitted dose curve; in most records, active means well fitted inhibition curve with a large enough effect; inconclusive means small, poorly fitted or top-dose-only effect; inactive means no such curve, though single readings can be large or run the other way. Potencies of inconclusive entries are left out as doubtful fits.

target: Glucagon-like peptide 1 receptor (Homo sapiens) (UniProt P43220); experiment: qHTS of GLP-1 Receptor Inverse Agonists (Inhibition Mode); conditions: HEK293 GLP-1R CRE-luciferase, luminescence, 24 h, GLP-1R form is constitutively active; activity change, negative = inhibition: at 38.3 µM (top of the series) unless noted; further: nearly all actives have a fitted effect of over 55% in size
Sequence of UniProt P43220 (P43220 whole entry, looked up): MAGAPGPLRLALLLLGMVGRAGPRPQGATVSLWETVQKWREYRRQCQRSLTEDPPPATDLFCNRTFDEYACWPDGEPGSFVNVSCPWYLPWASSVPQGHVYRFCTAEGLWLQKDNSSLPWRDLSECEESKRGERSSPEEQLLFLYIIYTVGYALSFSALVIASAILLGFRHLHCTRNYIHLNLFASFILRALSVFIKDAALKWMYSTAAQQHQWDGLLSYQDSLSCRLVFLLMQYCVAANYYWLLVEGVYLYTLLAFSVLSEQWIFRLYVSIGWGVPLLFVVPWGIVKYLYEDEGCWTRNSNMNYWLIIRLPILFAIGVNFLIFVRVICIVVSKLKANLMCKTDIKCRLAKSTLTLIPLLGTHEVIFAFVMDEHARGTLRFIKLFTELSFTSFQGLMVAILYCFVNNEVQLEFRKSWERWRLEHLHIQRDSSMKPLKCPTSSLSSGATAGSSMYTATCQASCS
Summary of the method: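 HEK293 cells stably co-expressing constitutively active GLP-1R and a cAMP-responsive luciferase reporter were seeded in DMEM with 10% Nu serum, given compounds after 12 h, and incubated 24 h at 37 deg C. Luminescence was then read.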
On the % scale 0 is the no-effect control and ±100 the full control effect; potency means the concentration at half of the fitted maximal effect; tags describe the fitted curve by direction and shape.

Question: Which Potency does the source give for O=C(Cc1ccc(Cl)cc1)OCC(=O)c1ccc[nH]1 here?
Answer: Its Potency is inconclusive [inhibitor, single point].

Question: How did the Potency turn out when CCCCCCCCNCCS(=O)(=O)NCc1ccccc1OC was run?
Answer: Its Potency is inconclusive [inhibitor, single point].

Question: Which Potency does the source give for C/C(Cl)=C\Cn1c(Nc2ccc(C)cc2)nc2c1c(=O)n(C)c(=O)n2C here?
Answer: The Potency was inconclusive [inhibitor, full curve, poor fit].

Question: O=C(NCc1ccncc1)c1nc(-c2ccc(C(F)(F)F)cc2)no1 was tested. Which Potency did it give?
Answer: The Potency was “inactive”.

Question: CC1Cc2ccccc2N1S(=O)(=O)c1cccc(C(=O)NCc2ccco2)c1 (configuration not stated) was tested. Which Potency did it give?
Answer: The Potency was inconclusive [inhibitor, partial curve].

Question: For CN(C)c1ccc2c(c1)Sc1cc(N(C)C)ccc1N2C(=O)c1ccccc1, which Potency is on record?
Answer: The Potency was inconclusive [inhibitor, partial curve].

Question: O=C(CCn1c2c(c3ccccc31)CCCC2)NNC(=O)c1ccccc1Cl was tested. Which Potency did it give?
Answer: The Potency was inconclusive [inhibitor, single point].

Question: How did the Potency turn out when O=C(C1CCN(Cc2ccc(Cl)cc2)CC1)N1CCN(Cc2ccc3c(c2)OCO3)CC1 was run?
Answer: The Potency was inconclusive [inhibitor, partial curve, poor fit].

Question: How did the Potency turn out when C[C@@]12C(=O)N(CCc3c[nH]c4ccccc34)CC(=O)N1[C@H]1c3ccccc3OC[C@@H]1[C@@H]2c1ccccc1 was run?
Answer: The Potency was inconclusive [inhibitor, single point].

Question: How did the Potency turn out when CC1CN(C(=O)CCC(=O)NCc2ccc(Cl)cc2)c2ccccc2O1 (configuration not stated) was run?
Answer: The Potency was inconclusive [inhibitor, single point].

Question: O=C(Nc1cccc([N+](=O)[O-])c1)C1C2CCCCC21 (configuration not stated) was tested. Which Potency did it give?
Answer: Its Potency is inconclusive [inhibitor, single point].

Question: For Cc1ccc(C(C(=O)NCc2ccccc2)N(C(=O)c2ccccn2)c2ccccc2)o1 (configuration not stated), which Potency is on record?
Answer: Its Potency is inconclusive [inhibitor, partial curve, poor fit].

Question: How did the Potency turn out when O=C(NN1C(=O)/C(=C/c2ccc(O)c([N+](=O)[O-])c2)SC1=S)c1ccccc1Cl was run?
Answer: The Potency was “inactive”.

Question: With CC(C(=O)Nc1ccccc1C#N)N1C(=O)NC2(CCCCCC2)C1=O (configuration not stated) as the compound, how does the Potency read?
Answer: Its Potency is inconclusive [inhibitor, single point].

Question: How did the Potency turn out when CCOc1ccc(CCNC(=O)c2cc3c(-c4ccccc4F)nn(C)c3s2)cc1OCC was run?
Answer: Its Potency is inconclusive [inhibitor, single point].

Question: For N#Cc1cc2c(nc1SCC(=O)N1CCCCC1)CCCCC2, which Potency is on record?
Answer: Its Potency is inconclusive [inhibitor, single point].

Question: Which Potency does the source give for CCOC(=O)c1ccc(NC(=O)c2ccc(-c3cccc(Cl)c3C)o2)cc1 here?
Answer: The Potency was inconclusive [inhibitor, single point].

Question: Which Potency does the source give for Cc1ccc(-c2noc(COc3ccccc3C)n2)cc1 here?
Answer: The Potency was “inactive”.

Question: Which Potency does the source give for O=C1[C@H]2[C@@H](C(=O)N1c1cccc3ccccc13)C1(C(=O)c3ccccc3C1=O)N1CCC[C@@H]21 here?
Answer: The Potency was “inactive”.

Question: With Nc1nonc1-n1nnc(C(=O)N/N=C/c2ccco2)c1-c1ccccc1 as the compound, how does the Potency read?
Answer: The Potency was “inactive”.

Question: Which Potency does the source give for COc1ccc(/C(N)=N/OC(=O)CC2CCCCC2)cc1OC here?
Answer: Its Potency is inconclusive [inhibitor, single point].

Question: O=S(=O)(Nc1cccnc1)c1ccc(Cl)c(C(F)(F)F)c1 was tested. Which Potency did it give?
Answer: The Potency was “inactive”.

Question: For COc1ccccc1C1CCN(C(=O)c2ccc(C(C)(C)C)cc2)CC1, which activity change, negative = inhibition is on record?
Answer: The activity change, negative = inhibition was inconclusive: -87.3% [inhibitor].

Question: Cc1cccc2cc(CN(Cc3ccccc3)C(=O)c3cccc(F)c3)c(Cl)nc12 was tested. Which Potency did it give?
Answer: The Potency was active: 11.2 µM.

Question: For CCCCCCSc1ccc(-c2nc3ccc(C)cn3c2NCc2ccccc2)cc1, which Potency is on record?
Answer: The Potency was inconclusive [inhibitor, single point].

Question: With CCOC(=O)CNc1nc(C(C)(C)C)nc2c1nnn2Cc1ccccc1Cl as the compound, how does the Potency read?
Answer: Its Potency is inconclusive [inhibitor, partial curve, poor fit].

Question: How did the Potency turn out when Fc1ccc2[nH]c3c(c2c1)CN(C(=S)NCc1ccccc1)CC3 was run?
Answer: Its Potency is active: 5.01 µM.

Question: With C/C(=N\NC(=O)COc1ccc(C)cc1C(C)C)c1cc2ccccc2o1 as the compound, how does the Potency read?
Answer: The Potency was inconclusive [inhibitor, single point].

Question: With COc1ccc(NC(=O)CN(C)C(=O)C(Sc2ccccc2)c2ccccc2)cc1 (configuration not stated) as the compound, how does the Potency read?
Answer: The Potency was inconclusive [inhibitor, single point].

Question: COC(=O)c1c(N(S(C)(=O)=O)S(C)(=O)=O)sc2c1CCN(c1ncc(C(F)(F)F)cc1Cl)C2 was tested. Which Potency did it give?
Answer: The Potency was inconclusive [inhibitor, single point].

Question: C/C(=N\NC(=O)c1ccc(-c2ccccc2)cc1)c1ccco1 was tested. Which Potency did it give?
Answer: The Potency was “inactive”.

Question: C=CC[C@@H](Cc1ccc(F)cc1)C(=O)OC[C@H]1CCCN1C(=O)[C@@H](CC=C)CC(=O)N[C@H](CO)Cc1ccccc1 was tested. Which Potency did it give?
Answer: The Potency was inconclusive [inhibitor, partial curve, poor fit].

Question: With COc1ccc(CN2CCN(C(=O)c3cc(C4CC4)nn3-c3ccccc3)CC2)cc1F as the compound, how does the Potency read?
Answer: Its Potency is inconclusive [inhibitor, partial curve, poor fit].

Question: O=C(c1cc(-c2cccs2)nc2ccccc12)N1CCN(S(=O)(=O)c2cccc(F)c2)CC1 was tested. Which Potency did it give?
Answer: Its Potency is inconclusive [inhibitor, single point].

Question: How did the Potency turn out when CCCCOc1ccc(CC(=O)NO)cc1 was run?
Answer: Its Potency is inconclusive [inhibitor, single point].

Question: COc1ccc(-n2c(=S)[nH]c3ccccc32)cc1 was tested. Which Potency did it give?
Answer: The Potency was inconclusive [inhibitor, single point].

Question: Which Potency does the source give for CC(=O)OC(C)C[N+](C)(C)C (configuration not stated) here?
Answer: The Potency was inconclusive [inhibitor, full curve, poor fit].

Question: Cc1c(C(=O)N(C)C2CCCCC2)sc2ncnc(N3CCN(c4ccccc4F)CC3)c12 was tested. Which Potency did it give?
Answer: Its Potency is active: 12.6 µM.

Question: With Nc1nc2ccc(Cl)cc2cc1C(=O)NCCc1c[nH]c2ccccc12 as the compound, how does the Potency read?
Answer: The Potency was inconclusive [inhibitor, partial curve].

Question: How did the Potency turn out when COc1cccc(CNC(=O)CCc2ccc(OC)c(OC)c2)c1 was run?
Answer: The Potency was “inactive”.

Question: With O=C1CN(C(=O)COC(=O)CCNS(=O)(=O)c2ccc(Cl)cc2)c2ccccc2N1 as the compound, how does the Potency read?
Answer: Its Potency is “inactive”.

Question: For Fc1ccc(N2CCN(c3ncnc4c3nc3n4CCCC3)CC2)cc1, which Potency is on record?
Answer: Its Potency is “inactive”.
